In paper PMC4336329 (PLoS ONE, 2015):
The campaign covered roughly 310,000 compounds. About 14,000 (4.5%) showed an effect of 50% or more. The effect is printed as a negative number. The list shows a part of the results.

Target: human ether-à-go-go-related gene (hERG) potassium channel (human, UniProt Q12809)
Assay: primary screen, population patch clamp on CHO cells stably expressing hERG
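Note: peak tail current of the secondary pulse compared with the same well before compound.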

human ether-à-go-go-related gene (hERG) potassium channel, sequence (Q12809 whole entry, looked up): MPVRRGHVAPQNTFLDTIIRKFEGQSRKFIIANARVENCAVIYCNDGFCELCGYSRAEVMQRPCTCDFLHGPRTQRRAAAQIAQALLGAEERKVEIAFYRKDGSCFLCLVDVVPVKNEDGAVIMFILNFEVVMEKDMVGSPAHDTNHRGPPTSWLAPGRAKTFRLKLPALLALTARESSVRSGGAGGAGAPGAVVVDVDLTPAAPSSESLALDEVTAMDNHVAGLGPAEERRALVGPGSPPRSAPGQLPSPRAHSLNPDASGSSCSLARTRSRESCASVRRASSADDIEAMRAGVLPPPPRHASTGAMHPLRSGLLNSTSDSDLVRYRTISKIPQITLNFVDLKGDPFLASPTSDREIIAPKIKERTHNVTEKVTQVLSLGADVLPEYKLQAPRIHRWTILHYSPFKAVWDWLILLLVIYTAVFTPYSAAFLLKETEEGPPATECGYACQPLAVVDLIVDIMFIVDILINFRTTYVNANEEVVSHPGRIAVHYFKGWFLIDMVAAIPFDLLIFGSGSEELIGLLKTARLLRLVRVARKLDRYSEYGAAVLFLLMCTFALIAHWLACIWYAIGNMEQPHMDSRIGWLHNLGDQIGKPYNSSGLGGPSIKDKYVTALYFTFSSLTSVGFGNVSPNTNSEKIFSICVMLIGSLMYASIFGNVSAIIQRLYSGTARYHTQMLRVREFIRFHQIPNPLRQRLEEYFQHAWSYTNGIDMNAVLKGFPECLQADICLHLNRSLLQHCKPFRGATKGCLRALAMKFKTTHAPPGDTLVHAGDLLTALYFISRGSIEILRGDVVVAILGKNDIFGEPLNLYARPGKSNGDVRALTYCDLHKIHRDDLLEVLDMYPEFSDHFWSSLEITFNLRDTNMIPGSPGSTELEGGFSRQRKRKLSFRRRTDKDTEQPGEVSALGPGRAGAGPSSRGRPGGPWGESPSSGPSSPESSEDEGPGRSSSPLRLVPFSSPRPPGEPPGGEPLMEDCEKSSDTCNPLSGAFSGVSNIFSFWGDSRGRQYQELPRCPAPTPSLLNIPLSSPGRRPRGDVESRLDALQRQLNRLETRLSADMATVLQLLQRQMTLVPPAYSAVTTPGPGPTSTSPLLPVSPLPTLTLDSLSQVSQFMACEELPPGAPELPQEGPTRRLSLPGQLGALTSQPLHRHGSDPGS

Q: With `NC(=O)CN1C(=O)NC(c2ccccc2)(c2ccccc2)C1=O` as the compound, how does the “hERG current change (%, negative = inhibition) at 10uM” value read?
A: 18.2%

Q: `O=C(N/N=C/C=C/c1ccccc1)C(O)c1ccccc1` (centres unmarked) was tested. Which “hERG current change (%, negative = inhibition) at 10uM” value did it give?
A: 2.87%

Q: With `COc1ccc(CCN2CC(C(=O)Nc3ccccc3F)CC2=O)cc1OC` (centres unmarked) as the compound, how does the “hERG current change (%, negative = inhibition) at 10uM” value read?
A: -12.2%

Q: `Clc1ccc(-n2ncc3c(N4CCCC4)ncnc32)cc1` was tested. Which “hERG current change (%, negative = inhibition) at 10uM” value did it give?
A: -2.62%

Q: With `O=C(c1ccc2[nH]c3c(c2c1)CCCC3)N1CCN(c2ccc(F)cc2)CC1` as the compound, how does the “hERG current change (%, negative = inhibition) at 10uM” value read?
A: -12.4%

Q: `O=C(c1ccc(N2C(=O)CCC2=O)cc1)N1CCN(c2ccccc2)CC1` was tested. Which “hERG current change (%, negative = inhibition) at 10uM” value did it give?
A: 8.26%

Q: With `COC(=O)C(CC(C)C)NC(=O)/C=C/c1ccccc1Cl` (centres unmarked) as the compound, how does the “hERG current change (%, negative = inhibition) at 10uM” value read?
A: 10.1%

Q: Which “hERG current change (%, negative = inhibition) at 10uM” value does the source give for `COc1ccc(/C=N/Nc2cc(OC)ncn2)cc1` here?
A: 15.6%

Q: How did the “hERG current change (%, negative = inhibition) at 10uM” value turn out when `S=C(NCCc1ccccc1)NCCc1cnc[nH]1` was run?
A: -4.01%

Q: `Nc1nnc(SCc2ccc3c(c2)OCO3)s1` was tested. Which “hERG current change (%, negative = inhibition) at 10uM” value did it give?
A: 0.437%

Q: With `COc1ccccc1CC(Cc1nc2ccccc2[nH]1)c1nc2ccccc2[nH]1` (centres unmarked) as the compound, how does the “hERG current change (%, negative = inhibition) at 10uM” value read?
A: -41.1%

Q: How did the “hERG current change (%, negative = inhibition) at 10uM” value turn out when `CC(C)(C)NC(=O)CSc1nc(-c2ccccc2)c(-c2ccccc2)[nH]1` was run?
A: -13.1%

Q: Which “hERG current change (%, negative = inhibition) at 10uM” value does the source give for `O=C(CSc1nc2ccccc2c(=O)n1-c1ccc(F)cc1)NC1CC1` here?
A: -9.4%

Q: For `CC(C)(C)N(Cc1cc2ccccc2[nH]c1=O)C(=O)c1cccc([N+](=O)[O-])c1`, which “hERG current change (%, negative = inhibition) at 10uM” value is on record?
A: 6.69%

Q: For `CSc1ccccc1NC(=O)CN(C)C(=O)c1c(C)nn(Cc2ccccc2)c1C`, which “hERG current change (%, negative = inhibition) at 10uM” value is on record?
A: -24.1%

Q: Which “hERG current change (%, negative = inhibition) at 10uM” value does the source give for `CC(=O)N1CCN(CC(O)COc2ccc(OCc3ccccc3)cc2)CC1` (centres unmarked) here?
A: -17.7%

Q: How did the “hERG current change (%, negative = inhibition) at 10uM” value turn out when `Cc1nc(C)n(C(Oc2ccc(Cl)cc2Cl)C(=O)C(C)(C)C)n1` (centres unmarked) was run?
A: -1.62%

Q: Which “hERG current change (%, negative = inhibition) at 10uM” value does the source give for `COc1ccc(OC)c(NC(=O)C(=O)NNC(=O)COc2ccc(Br)cc2C)c1` here?
A: 18.4%

Q: For `Cc1cc(=O)n(CCC(=O)O)c2ccccc12`, which “hERG current change (%, negative = inhibition) at 10uM” value is on record?
A: 10.7%

Q: For `COC(=O)/C(=C\C=C\c1ccccc1)NC(=O)c1ccccc1`, which “hERG current change (%, negative = inhibition) at 10uM” value is on record?
A: 8.85%

Q: For `NS(=O)(=O)c1ccc(NC(=O)COC(=O)CCc2ccccc2)cc1`, which “hERG current change (%, negative = inhibition) at 10uM” value is on record?
A: 21.3%

Q: How did the “hERG current change (%, negative = inhibition) at 10uM” value turn out when `Cc1cc(C(=O)NC2CCCN(Cc3ccccc3F)C2)n[nH]1` (centres unmarked) was run?
A: 19.6%

Q: `CCOC(=O)c1[nH]c(CSc2nnc(-c3ccc(OC)cc3)o2)c(C(=O)OCC)c1C` was tested. Which “hERG current change (%, negative = inhibition) at 10uM” value did it give?
A: 5.46%

Q: With `C/C(=N\NS(=O)(=O)c1ccc(C(C)(C)C)cc1)c1ccccc1` as the compound, how does the “hERG current change (%, negative = inhibition) at 10uM” value read?
A: 2.69%

Q: `Cn1ccnc1SCC(=O)Nc1ccc2c(c1)COC2=O` was tested. Which “hERG current change (%, negative = inhibition) at 10uM” value did it give?
A: 7.8%

Q: How did the “hERG current change (%, negative = inhibition) at 10uM” value turn out when `Cc1ccc2c(c1)C1CN(C)CCC1N2CC(=O)N(C)c1ccccc1` (centres unmarked) was run?
A: 6.34%

Q: With `CCOC(=O)c1ccccc1NC(=O)CSc1nnnn1C1CCCCC1` as the compound, how does the “hERG current change (%, negative = inhibition) at 10uM” value read?
A: -41%

Q: How did the “hERG current change (%, negative = inhibition) at 10uM” value turn out when `CCn1ncc(C2=NOC(C(=O)Nc3c(C)nn(Cc4ccc(F)cc4)c3C)C2)c1C` (centres unmarked) was run?
A: 10.3%

Q: `O=C(Nc1ccccc1F)c1ccccc1C(=O)Nc1ccccc1F` was tested. Which “hERG current change (%, negative = inhibition) at 10uM” value did it give?
A: 6.6%

Q: How did the “hERG current change (%, negative = inhibition) at 10uM” value turn out when `COc1ccc(NC(=O)N(C2CCCCC2)C(C)c2cccnc2)c(OC)c1` (centres unmarked) was run?
A: -19.6%

Q: How did the “hERG current change (%, negative = inhibition) at 10uM” value turn out when `CC1(C(=O)O)CCC(C(=O)NNC(=O)c2ccccc2O)C1(C)C` (centres unmarked) was run?
A: 12%

Q: How did the “hERG current change (%, negative = inhibition) at 10uM” value turn out when `CCN(Cc1ccccc1)C(=O)CCCOc1ccccc1` was run?
A: -2.67%

Q: For `COc1cccc(C(=O)NCCS(=O)(=O)NCCc2ccccc2)c1`, which “hERG current change (%, negative = inhibition) at 10uM” value is on record?
A: -23.6%

Q: Which “hERG current change (%, negative = inhibition) at 10uM” value does the source give for `N#CCSc1n[nH]c2nc3c(c(=O)n12)C1(CCCC1)Cc1ccccc1-3` here?
A: 7.88%

Q: With `O=c1[nH]c2ccccc2nc1-c1cccs1` as the compound, how does the “hERG current change (%, negative = inhibition) at 10uM” value read?
A: 1.66%

Q: How did the “hERG current change (%, negative = inhibition) at 10uM” value turn out when `O=C(O)COC(=O)C1C(c2ccccc2)C(C(=O)O)C1c1ccccc1` (centres unmarked) was run?
A: -1.16%

Q: With `NC(=O)N=Nc1c(O)[nH]c2c(Br)cc(Br)cc12` as the compound, how does the “hERG current change (%, negative = inhibition) at 10uM” value read?
A: 8.72%

Q: Which “hERG current change (%, negative = inhibition) at 10uM” value does the source give for `O=C(CSc1nc2ccc(NC(=O)c3ccccc3C(=O)O)cc2s1)Nc1ccc(F)c([N+](=O)[O-])c1` here?
A: 13.5%

Q: How did the “hERG current change (%, negative = inhibition) at 10uM” value turn out when `COc1ccccc1NC(=O)COc1cc(C)nc(C(C)C)n1` was run?
A: 7.66%

Q: With `COc1ccc(-n2ncc3c(NCCN4CCOCC4)ncnc32)cc1` as the compound, how does the “hERG current change (%, negative = inhibition) at 10uM” value read?
A: -0.24%

Q: For `CC(C)C[C@H](NC(=O)c1nc[nH]c1C(=O)N[C@@H](CCCCNC(=O)OC(C)(C)C)C(=O)OC(C)(C)C)C(=O)OCc1ccccc1`, which “hERG current change (%, negative = inhibition) at 10uM” value is on record?
A: 6.37%

Q: How did the “hERG current change (%, negative = inhibition) at 10uM” value turn out when `COc1cc(/C=N/NC(=O)c2cccc3ccccc23)cc(OC)c1OC` was run?
A: 16.2%

Q: `O=C(CSc1nc(-c2ccc(F)cc2)cc(C(F)(F)F)n1)NCc1ccco1` was tested. Which “hERG current change (%, negative = inhibition) at 10uM” value did it give?
A: 10.2%

Q: With `CCC(Oc1ccccc1)C(=O)Nc1ccc(C)c(S(=O)(=O)N2CCOCC2)c1` (centres unmarked) as the compound, how does the “hERG current change (%, negative = inhibition) at 10uM” value read?
A: -18%

Q: For `CCS(=O)(=O)N1CCCC(C(=O)NCc2ccc(C)cc2)C1` (centres unmarked), which “hERG current change (%, negative = inhibition) at 10uM” value is on record?
A: 4.45%

Q: Which “hERG current change (%, negative = inhibition) at 10uM” value does the source give for `O=C(c1ccco1)N1CCCN(Cc2nc(-c3cccs3)no2)CC1` here?
A: -22.1%

Q: `CC(C)Oc1ccc(-c2cc(C(=O)NCCN3CCOCC3)c3ccccc3n2)cc1` was tested. Which “hERG current change (%, negative = inhibition) at 10uM” value did it give?
A: -12.2%

Q: How did the “hERG current change (%, negative = inhibition) at 10uM” value turn out when `O=C(CN(Cc1ccccc1)C(=O)CSc1nnc(COc2ccccc2)o1)NC1CCCC1` was run?
A: -8.74%

Q: How did the “hERG current change (%, negative = inhibition) at 10uM” value turn out when `O=C(CCCC(=O)NCc1ccc(F)cc1)NCc1ccc(F)cc1` was run?
A: -39%

Q: For `CCOC(=O)c1cc(C#N)c(SCc2ccc(C#N)cc2)nc1C`, which “hERG current change (%, negative = inhibition) at 10uM” value is on record?
A: 3.29%

Q: How did the “hERG current change (%, negative = inhibition) at 10uM” value turn out when `NS(=O)(=O)c1ccc(CCNC(=O)COC(=O)/C=C/c2ccccc2Cl)cc1` was run?
A: -6.14%

Q: `CN(/N=C/c1ccc2c(c1)OCO2)c1nc(N2CCOCC2)nc(N2CCOCC2)n1` was tested. Which “hERG current change (%, negative = inhibition) at 10uM” value did it give?
A: 12.1%

Q: `COc1ccc(S(=O)(=O)NCCSCc2ccco2)cc1C` was tested. Which “hERG current change (%, negative = inhibition) at 10uM” value did it give?
A: -20.8%

Q: `COc1ccc(C(=O)O)cc1S(=O)(=O)NC(C)C12CC3CC(CC(C3)C1)C2` (centres unmarked) was tested. Which “hERG current change (%, negative = inhibition) at 10uM” value did it give?
A: 1.27%

Q: `O=C(NCc1ccccc1)N1CCN(c2ccccc2)CC1` was tested. Which “hERG current change (%, negative = inhibition) at 10uM” value did it give?
A: 5.69%

Q: For `NC1=NS(=O)(=O)NC1c1cccc(F)c1` (centres unmarked), which “hERG current change (%, negative = inhibition) at 10uM” value is on record?
A: 14.5%
